In all, about 390,000 compounds went through this assay and about 17,000 (4.4%) were called active. Inconclusive results, whose numbers are uncertain, are shown with a selection of clear calls. The call rests on the fitted dose curve; in most records, active means well fitted inhibition curve with a large enough effect; inconclusive means small, poorly fitted or top-dose-only effect; inactive means no such curve, though single readings can be large or run the other way. Potencies beside an inconclusive call are fits to weak or partial responses and may not hold up.
Molecular target: Lysine-specific demethylase 4A (Homo sapiens) (UniProt O75164)
Experiment: qHTS Assay for Inhibitors of JMJD2A-Tudor Domain; further: nearly all actives have a fitted effect of over 50% in size
Settings: AlphaScreen JMJD2A-Tudor / H3K4me3 peptide binding; activity change, negative = inhibition: at 114 µM (top of the series)
On the % scale 0 is the no-effect control and ±100 the full control effect; potency means the concentration at half of the fitted maximal effect; tags describe the fitted curve by direction and shape.

Sequence of UniProt O75164 (O75164 whole entry, looked up, the tested form may be a part): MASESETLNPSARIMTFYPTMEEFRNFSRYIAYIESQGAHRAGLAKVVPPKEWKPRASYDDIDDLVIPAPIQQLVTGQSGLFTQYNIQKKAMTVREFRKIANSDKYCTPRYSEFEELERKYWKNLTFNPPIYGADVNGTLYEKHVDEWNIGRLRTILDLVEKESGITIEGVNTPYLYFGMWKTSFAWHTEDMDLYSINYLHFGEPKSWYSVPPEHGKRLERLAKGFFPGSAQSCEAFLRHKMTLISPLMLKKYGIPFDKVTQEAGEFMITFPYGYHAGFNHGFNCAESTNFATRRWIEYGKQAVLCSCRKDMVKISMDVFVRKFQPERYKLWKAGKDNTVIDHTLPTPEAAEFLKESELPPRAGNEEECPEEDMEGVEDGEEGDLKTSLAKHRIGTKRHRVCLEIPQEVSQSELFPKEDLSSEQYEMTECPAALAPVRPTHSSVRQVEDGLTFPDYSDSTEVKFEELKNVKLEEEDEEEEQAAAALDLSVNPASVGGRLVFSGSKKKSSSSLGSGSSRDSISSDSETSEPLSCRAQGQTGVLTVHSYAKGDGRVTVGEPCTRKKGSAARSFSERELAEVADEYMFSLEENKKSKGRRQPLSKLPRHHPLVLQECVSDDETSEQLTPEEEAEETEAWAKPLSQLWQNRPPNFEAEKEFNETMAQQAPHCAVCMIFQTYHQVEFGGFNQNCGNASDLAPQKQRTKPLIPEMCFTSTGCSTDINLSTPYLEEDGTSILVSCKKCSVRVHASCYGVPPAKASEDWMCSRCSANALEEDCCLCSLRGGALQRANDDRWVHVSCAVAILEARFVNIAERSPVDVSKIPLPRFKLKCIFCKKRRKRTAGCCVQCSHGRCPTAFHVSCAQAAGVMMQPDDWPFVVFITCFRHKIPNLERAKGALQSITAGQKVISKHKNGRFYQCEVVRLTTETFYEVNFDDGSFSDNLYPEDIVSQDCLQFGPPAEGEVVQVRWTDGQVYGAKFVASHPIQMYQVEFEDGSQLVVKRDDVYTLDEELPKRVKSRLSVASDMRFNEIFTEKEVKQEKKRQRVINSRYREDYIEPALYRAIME

Structure (SMILES)	activity change, negative = inhibition	Potency
Cc1nc2ccccc2c(=O)n1Cc1ccco1	inactive: -2.66%	–
COCCNCC(=O)Nc1ccc(C)c(S(=O)(=O)N2CCCCC2)c1	–	active: 35.5 µM
O=C(Nc1ccc(Br)cc1)c1ccccc1Br	inactive: -3.93%	–
NC(=O)CC(NC(=O)c1ccccc1)c1ccc(NC2CCCCCCC2)c([N+](=O)[O-])c1 (configuration not stated)	inactive: -32.1%	–
O=C(/C=C/c1ccccc1[N+](=O)[O-])Nc1cccc(S(=O)(=O)NC2=NCCCCC2)c1	–	inconclusive: 50.1 µM [inhibitor, partial curve]
CCc1cccc(OCC(=O)Nc2ccccc2N2CCCC2)c1	–	inconclusive: 63.1 µM [inhibitor, partial curve]
COc1ccc(CNc2oc(-c3ccc(COc4ccc(OC)cc4)o3)nc2C#N)cc1	–	inconclusive: 31.6 µM [inhibitor, partial curve]
CCN(CC)c1ccc(/C=N/NC(=O)c2ccc3nc[nH]c3c2)c(O)c1	–	inconclusive: 44.7 µM [inhibitor, partial curve]
NC(C(=O)O)C(c1ccccc1)C(F)F (configuration not stated)	–	active: 50.1 µM
O=C(CC1Sc2ccccc2NC1=O)Nc1cccc(C(=O)O)c1 (configuration not stated)	–	active: 50.1 µM
CCC(=O)Nc1ccc(NC(=S)NC(=O)c2cc3ccccc3o2)cc1	–	inconclusive: 28.2 µM [inhibitor, single point]
COCCCNC(=O)C[C@H]1C[C@H](C(=O)N2CCCCC2)[C@@]2(C)c3[nH]c4cc(-c5ccco5)ccc4c3CCN2C1=O	–	inconclusive: 56.2 µM [inhibitor, partial curve]
CC(=O)NC(c1cccs1)c1cc(Cl)c2cccnc2c1O (configuration not stated)	inactive: -29.9%	–
CCN1C(=O)C(Cc2nc3ccccc3c(=O)n2-c2ccccc2)c2cc(Br)ccc21 (configuration not stated)	–	inconclusive: 14.1 µM [inhibitor, full curve, poor fit]
COc1ccc(Br)cc1C(=O)NC(=S)Nc1ccc(CN2CCOCC2)cc1	–	inconclusive: 44.7 µM [inhibitor, partial curve]
CCN(CC)S(=O)(=O)c1ccc(N2CCN(C)CC2)c(NC(=O)CN2C(=O)NC3(CCCCC3)C2=O)c1	inactive: -10.5%	–
O=C1N(CN2CCOCC2)c2ccccc2C12OCC(CCl)O2 (configuration not stated)	–	inconclusive: 35.5 µM [inhibitor, single point]
O=C(CSCc1c(Cl)cccc1Cl)NCc1ccco1	–	inconclusive: 79.4 µM [inhibitor, single point]
COc1ccccc1NC(=O)c1c(N=Cc2c(O)ccc3ccccc23)cnn1C	–	inconclusive: 15.8 µM [inhibitor, full curve]
N=C1/C(=C/c2ccc(-c3cccc(C(=O)O)c3)o2)C(=O)N=C2SC=C(c3ccccc3)N12	–	active: 22.4 µM
Cc1nc(-c2ccc(S(=O)(=O)N3CCN(c4ccc(F)cc4)CC3)cc2)co1	–	inconclusive: 39.8 µM [inhibitor, partial curve]
CN(C)c1ccc(N=Nc2ccc(C(=O)O)cc2)cc1	–	active: 25.1 µM
O=C(OCC(=O)N1CCCc2ccccc21)c1ccc(C(F)(F)F)cc1	inactive: 23%	–
COc1ccc(S(=O)(=O)Nc2cc3c(cc2NCc2ccccc2)n(C)c(=O)n3C)cc1	–	active: 50.1 µM

Structure (SMILES)	activity change, negative = inhibition	Potency
Cc1sc(NC(=O)Cc2ccc3c(c2)OCO3)nc1-c1ccc2c(c1)CCN2C(=O)c1ccc(F)cc1	–	inconclusive: 50.1 µM [inhibitor, partial curve]
CCn1c(SCC(=O)NC2=NCCS2)nnc1C(C)NC(=O)c1ccccc1F (configuration not stated)	inactive: 0.714%	–
O=[N+]([O-])c1ccc(C(=S)N2CCC(Cc3ccccc3)CC2)cc1	–	inconclusive: 39.8 µM [inhibitor, single point]
O=[N+]([O-])c1ccc(O)c(/C=N/Nc2nc3ccccc3[nH]2)c1	–	inconclusive: 31.6 µM [inhibitor, single point]
COc1ccc(NC(=O)COc2ccc3c(c2)CCC3)cc1S(N)(=O)=O	inactive: -17.6%	–
Cc1cc(C)cc(NC(=O)C2CCN(S(=O)(=O)c3ccc4[nH]c(=O)ccc4c3)CC2)c1	inactive: -20.4%	–
CCOC(=O)CN1C(=O)S/C(=C\c2ccc(-c3ccc(C(=O)O)c(Cl)c3)o2)C1=O	–	active: 79.4 µM
CCC(CC)C(=O)Nc1nnc(-c2cccs2)s1	inactive: -12.2%	–
N#C/C(=C/c1cccc([N+](=O)[O-])c1)C(=O)Nc1ccccc1O	–	inconclusive: 89.1 µM [inhibitor, partial curve, poor fit]
CC(C)CCC(C)N=Cc1c(O)n(Cc2ccccc2)c(=O)c2ccccc12 (configuration not stated)	–	inconclusive: 50.1 µM [inhibitor, partial curve]
CCCN1CCc2nc(N3CCN(c4ncccn4)CC3)ncc2C1	–	active: 89.1 µM
C/C(=N\Nc1cccc(Cl)c1)c1ccncc1	inactive: -35.2%	–
Clc1ccc(CSc2nnc(-c3ccccn3)n2Cc2ccco2)c(Cl)c1	–	inconclusive: 56.2 µM [inhibitor, partial curve]
Cc1cc(N2CCN(c3ccc(C(F)(F)F)cc3[N+](=O)[O-])CC2)c2ccccc2n1	–	active: 44.7 µM
COc1ccc(CNc2ccc(N3CCN(C(C)=O)CC3)cc2)cc1OC	inactive: -17.4%	–
COc1ccc(S(=O)(=O)Nc2c(C(=O)O)[nH]c3ccccc23)cc1OC	–	inconclusive: 25.1 µM [inhibitor, full curve]
Cc1ccc2cc(C(c3nnnn3C3CCCC3)N(Cc3cccnc3)Cc3ccco3)c(=O)[nH]c2c1 (configuration not stated)	–	inconclusive: 44.7 µM [inhibitor, partial curve]
COc1ccc(NC(=O)CN2C(=O)C3(SCC(=O)N3c3cccc(OC)c3)c3ccccc32)cc1 (configuration not stated)	inactive: -21.4%	–
CCOc1ccc(CSC2=NCCN2)cc1Cl	–	inconclusive: 39.8 µM [inhibitor, single point]
CCn1cc(Cl)c(C(=O)Nc2nc3ccccc3n2CCN2CCCCC2)n1	–	inconclusive: 50.1 µM [inhibitor, partial curve]
Nc1ccc(OCc2ccccc2)cc1[N+](=O)[O-]	–	active: 39.8 µM
Cc1cccc(-c2oc3ccc(-c4ccc5c(c4)OCO5)cc3c2C#Cc2cncn2C)c1	–	inconclusive: 28.2 µM [inhibitor, full curve, poor fit]
O=C(CCn1c(=S)[nH]c2ccccc2c1=O)NCCCN1CCCC1=O	–	active: 17.8 µM
CC(=O)Nc1ccc(NS(=O)(=O)c2c(Cl)cccc2Cl)cc1	inactive: -15.4% [at 11.4 µM]	–

Structure (SMILES)	activity change, negative = inhibition	Potency
c1ccc2cc(OCCN3CCCC3)ccc2c1	–	active: 7.94 µM
COC(=O)COc1ccc(/C=N/NC(=O)c2ccc(N(Cc3ccccc3)S(C)(=O)=O)cc2)cc1	inactive: -6.76%	–
CCNC(=O)CC1C(=O)N(c2ccc(F)cc2)C(=O)N1Cc1ccccn1 (configuration not stated)	–	inconclusive: 15.8 µM [inhibitor, full curve]
CCc1ccc2nc(N3C(=O)C(O)=C(C(=O)c4ccco4)C3c3cccs3)sc2c1 (configuration not stated)	–	inconclusive: 28.2 µM [inhibitor, partial curve]
O=C(CSc1nc2nn(-c3ccccc3)c(=O)c-2c2n1CCCCC2)NCCCc1ccccc1	–	inconclusive: 50.1 µM [inhibitor, partial curve]
O=C(CNC(=O)c1cccs1)NC1=NCCS1	–	inconclusive: 79.4 µM [inhibitor, single point]
Cc1ccc(NCC(=O)Nc2cccc(F)c2)cc1S(=O)(=O)N1CCCCCC1	inactive: -33.6%	–
Cc1ccc(S(=O)(=O)Nc2cccc(NC(=O)CN3CCCCC3)c2)cc1	–	inconclusive: 39.8 µM [inhibitor, partial curve, poor fit]
COc1cccc(N2CC(NC(=O)C3CC3)CC2=O)c1 (configuration not stated)	inactive: 1.95%	–
O=C(NC1CCc2ccccc21)c1cc(COc2ccc(F)cc2Cl)on1 (configuration not stated)	inactive: 5.26%	–
OC(COCc1ccco1)CN1CCN(c2ccccc2)CC1 (configuration not stated)	–	active: 2.51 µM
CCc1ccccc1N(CC(=O)N1CCN(c2ccccc2)CC1)S(C)(=O)=O	–	active: 79.4 µM
Cc1cc(Nc2ccc(F)cc2)nc(-n2nc(C)cc2C)n1	–	inconclusive: 11.2 µM [inhibitor, full curve, poor fit]
COc1cccc(NC(=O)CN(C)C(C)C(=O)N2CCCCC2)c1 (configuration not stated)	–	active: 0.316 µM
COc1ccc(C2=C(CN(C)C)C(c3ccccc3)c3ccccc3O2)cc1 (configuration not stated)	–	inconclusive: 50.1 µM [inhibitor, partial curve]
COc1ccc(/C=N/Nc2ncc(-c3ccccc3)cn2)c(OC)c1	–	inconclusive: 44.7 µM [inhibitor, partial curve]
CCC(=O)c1ccc(OCC(=O)OCC(=O)c2cc(C)n(C3CC3)c2C)cc1	inconclusive: -40.7% [inhibitor]	–
O=C(OCCCC(=O)N1CCOCC1)c1ccccc1	inactive: -2.16%	–
CCN(CC)S(=O)(=O)c1ccc2c(c1)c(=O)c(C(=O)NCCCN(C)c1ccccc1)cn2C	–	inconclusive: 20 µM [inhibitor, full curve]
Brc1ccc(CNc2cc3c(cc2Br)OCCO3)cc1	–	inconclusive: 39.8 µM [inhibitor, partial curve]
CCOC(=O)c1c(N2C(=O)CC(Sc3ccccc3C(=O)O)C2=O)sc2c1CCCC2 (configuration not stated)	–	inconclusive: 17.8 µM [inhibitor, partial curve, poor fit]
COCCC(=O)N1CCC(Oc2ccc(C(=O)N3CCCCCC3)cc2)CC1	–	inconclusive: 17.8 µM [inhibitor, single point]
COc1ccccc1N1CCN(CC(O)COc2ccc(C)cc2C(C)(C)C)CC1 (configuration not stated)	–	inconclusive: 56.2 µM [inhibitor, partial curve, poor fit]
O=C(O)c1ccn(Cn2cnc3ccccc32)n1	–	active: 22.4 µM

Source: PubChem BioAssay AID504339 (National Center for Advancing Translational Sciences (NCATS), 2011)
